Experimental data as given in the supplement of paper PMC8728848.
Some of the results follow.

Legend:
Test in all cases: glycan array binding signal (z-score within array); higher = stronger binding
Conditions in all cases: glycan notation: IUPAC condensed, linker removed
[1] = biological target: GlcNAc(b1-3)Gal(b1-4)Glc
In short: (§1)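 The binding signal is a Z-score computed within each array. Data were drawn from 3228 arrays in the Consortium for Functional Glycomics database, restricted to those with a known protein sequence. Scores were averaged over arrays of the same protein sequence at different concentrations or buffers, and over linkers, and negative values can be taken as non-binding.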

[2] = biological target: GlcNAc(b1-3)Gal(b1-4)GlcNAc
In short: as §1

[3] = biological target: GlcNAc(b1-3)Gal(b1-4)GlcNAc(b1-2)Man(a1-3)[GlcNAc(b1-3)Gal(b1-4)GlcNAc(b1-2)Man(a1-6)]Man(b1-4)GlcNAc(b1-4)GlcNAc
In short: as §1

[4] = biological target: GlcNAc(b1-3)Gal(b1-4)GlcNAc(b1-2)Man(a1-3)[GlcNAc(b1-3)Gal(b1-4)GlcNAc(b1-2)Man(a1-6)]Man(b1-4)GlcNAc(b1-4)[Fuc(a1-6)]GlcNAc
In short: as §1

[5] = biological target: GlcNAc(b1-3)Gal(b1-4)GlcNAc(b1-2)[GlcNAc(b1-3)Gal(b1-4)GlcNAc(b1-6)]Man(a1-6)[GlcNAc(b1-3)Gal(b1-4)GlcNAc(b1-2)Man(a1-3)]Man(b1-4)GlcNAc(b1-4)GlcNAc
In short: as §1

[6] = biological target: GlcNAc(b1-3)Gal(b1-4)GlcNAc(b1-3)Gal(b1-4)GlcNAc
In short: as §1

[7] = biological target: GlcNAc(b1-3)Gal(b1-4)GlcNAc(b1-3)Gal(b1-4)GlcNAc(b1-2)Man(a1-3)[GlcNAc(b1-3)Gal(b1-4)GlcNAc(b1-3)Gal(b1-4)GlcNAc(b1-2)Man(a1-6)]Man(b1-4)GlcNAc(b1-4)GlcNAc
In short: as §1

[8] = biological target: GlcNAc(b1-3)Gal(b1-4)GlcNAc(b1-3)Gal(b1-4)GlcNAc(b1-2)Man(a1-3)[GlcNAc(b1-3)Gal(b1-4)GlcNAc(b1-3)Gal(b1-4)GlcNAc(b1-2)Man(a1-6)]Man(b1-4)GlcNAc(b1-4)[Fuc(a1-6)]GlcNAc
In short: as §1

[9] = biological target: GlcNAc(b1-3)Gal(b1-4)GlcNAc(b1-3)Gal(b1-4)GlcNAc(b1-2)[GlcNAc(b1-3)Gal(b1-4)GlcNAc(b1-3)Gal(b1-4)GlcNAc(b1-6)]Man(a1-6)[GlcNAc(b1-3)Gal(b1-4)GlcNAc(b1-3)Gal(b1-4)GlcNAc(b1-2)Man(a1-3)]Man(b1-4)GlcNAc(b1-4)[Fuc(a1-6)]GlcNAc
In short: as §1

[10] = biological target: GlcNAc(b1-3)Gal(b1-4)GlcNAc(b1-3)Gal(b1-4)GlcNAc(b1-3)Gal(b1-4)GlcNAc(b1-2)Man(a1-3)[GlcNAc(b1-3)Gal(b1-4)GlcNAc(b1-3)Gal(b1-4)GlcNAc(b1-3)Gal(b1-4)GlcNAc(b1-2)Man(a1-6)]Man(b1-4)GlcNAc(b1-4)GlcNAc
In short: as §1

[11] = biological target: GlcNAc(b1-3)Gal(b1-4)GlcNAc(b1-3)Gal(b1-4)GlcNAc(b1-3)Gal(b1-4)GlcNAc(b1-2)Man(a1-3)[GlcNAc(b1-3)Gal(b1-4)GlcNAc(b1-3)Gal(b1-4)GlcNAc(b1-3)Gal(b1-4)GlcNAc(b1-2)Man(a1-6)]Man(b1-4)GlcNAc(b1-4)[Fuc(a1-6)]GlcNAc
In short: as §1

[12] = biological target: GlcNAc(b1-3)Gal(b1-4)GlcNAc(b1-3)Gal(b1-4)GlcNAc(b1-3)Gal(b1-4)GlcNAc(b1-2)[GlcNAc(b1-3)Gal(b1-4)GlcNAc(b1-3)Gal(b1-4)GlcNAc(b1-3)Gal(b1-4)GlcNAc(b1-6)]Man(a1-6)[GlcNAc(b1-3)Gal(b1-4)GlcNAc(b1-3)Gal(b1-4)GlcNAc(b1-3)Gal(b1-4)GlcNAc(b1-2)Man(a1-3)]Man(b1-4)GlcNAc(b1-4)[Fuc(a1-6)]GlcNAc
In short: as §1

[13] = biological target: GlcNAc(b1-3)Gal(b1-4)GlcNAc(b1-3)Gal(b1-4)GlcNAc(b1-3)Gal(b1-4)GlcNAc(b1-3)Gal(b1-4)GlcNAc(b1-2)Man(a1-3)[GlcNAc(b1-3)Gal(b1-4)GlcNAc(b1-3)Gal(b1-4)GlcNAc(b1-3)Gal(b1-4)GlcNAc(b1-3)Gal(b1-4)GlcNAc(b1-2)Man(a1-6)]Man(b1-4)GlcNAc(b1-4)GlcNAc
In short: as §1

[14] = biological target: GlcNAc(b1-3)Gal(b1-4)GlcNAc(b1-3)Gal(b1-4)GlcNAc(b1-3)Gal(b1-4)GlcNAc(b1-3)Gal(b1-4)GlcNAc(b1-2)Man(a1-3)[GlcNAc(b1-3)Gal(b1-4)GlcNAc(b1-3)Gal(b1-4)GlcNAc(b1-3)Gal(b1-4)GlcNAc(b1-3)Gal(b1-4)GlcNAc(b1-2)Man(a1-6)]Man(b1-4)GlcNAc(b1-4)[Fuc(a1-6)]GlcNAc
In short: as §1

[15] = biological target: GlcNAc(b1-3)Gal(b1-4)GlcNAc(b1-3)Gal(b1-4)GlcNAc(b1-3)Gal(b1-4)GlcNAc(b1-3)Gal(b1-4)GlcNAc(b1-2)[GlcNAc(b1-3)Gal(b1-4)GlcNAc(b1-3)Gal(b1-4)GlcNAc(b1-3)Gal(b1-4)GlcNAc(b1-3)Gal(b1-4)GlcNAc(b1-6)]Man(a1-6)[GlcNAc(b1-3)Gal(b1-4)GlcNAc(b1-3)Gal(b1-4)GlcNAc(b1-3)Gal(b1-4)GlcNAc(b1-3)Gal(b1-4)GlcNAc(b1-2)Man(a1-3)]Man(b1-4)GlcNAc(b1-4)[Fuc(a1-6)]GlcNAc
In short: as §1

[16] = biological target: GlcNAc(b1-3)Gal(b1-4)GlcNAc(b1-3)Gal(b1-4)GlcNAc(b1-3)GalNAc
In short: as §1

[17] = biological target: GlcNAc(b1-3)Gal(b1-4)GlcNAc(b1-3)GalNAc
In short: as §1

[18] = biological target: GlcNAc(b1-3)Gal(b1-4)GlcNAc(b1-3)[GlcNAc(b1-3)Gal(b1-4)GlcNAc(b1-3)]GalNAc
In short: as §1

[19] = biological target: GlcNAc(b1-3)Gal(b1-4)GlcNAc(b1-6)[Gal(b1-3)]GalNAc
In short: as §1

[20] = biological target: GlcNAc(b1-3)Gal(b1-4)GlcNAc(b1-6)[GlcNAc(b1-3)Gal(b1-3)]GalNAc
In short: as §1

[21] = biological target: GlcNAc(b1-3)Gal(b1-4)GlcNAc(b1-6)[GlcNAc(b1-3)]Gal(b1-4)GlcNAc
In short: as §1

[22] = biological target: GlcNAc(b1-3)GalNAc
In short: as §1

[23] = biological target: GlcNAc(b1-3)Man
In short: as §1

[24] = biological target: GlcNAc(b1-3)[GlcNAc(b1-4)][GlcNAc(b1-6)]GlcNAc
In short: as §1

[25] = biological target: GlcNAc(b1-3)[GlcNAc(b1-6)]Gal(b1-4)GlcNAc
In short: as §1

[26] = biological target: GlcNAc(b1-3)[GlcNAc(b1-6)]GalNAc
In short: as §1

[27] = biological target: GlcNAc(b1-4)Gal(b1-4)GlcNAc
In short: as §1

[28] = biological target: GlcNAc(b1-4)GlcNAc
In short: as §1

[29] = biological target: GlcNAc(b1-4)GlcNAc(b1-4)GlcNAc
In short: as §1

[30] = biological target: GlcNAc(b1-4)GlcNAc(b1-4)GlcNAc(b1-4)GlcNAc(b1-4)GlcNAc
In short: as §1

[31] = biological target: GlcNAc(b1-4)GlcNAc(b1-4)GlcNAc(b1-4)GlcNAc(b1-4)GlcNAc(b1-4)GlcNAc
In short: as §1

[32] = biological target: GlcNAc(b1-4)[GlcNAc(b1-6)]GalNAc
In short: as §1

[33] = biological target: GlcNAc(b1-6)Gal(b1-4)GlcNAc
In short: as §1

[34] = biological target: GlcNAc(b1-6)GalNAc
In short: as §1

[35] = biological target: GlcNAc6S(b1-3)Gal(b1-4)GlcNAc
In short: as §1

[36] = biological target: Kdn(a2-3)Gal(b1-3)GalNAc
In short: as §1

[37] = biological target: Kdn(a2-3)Gal(b1-3)GlcNAc
In short: as §1

[38] = biological target: Kdn(a2-3)Gal(b1-4)Glc
In short: as §1

[39] = biological target: Kdn(a2-3)Gal(b1-4)GlcNAc
In short: as §1

[40] = biological target: Kdn(a2-3)Gal(b1-4)[Fuc(a1-3)]GlcNAc
In short: as §1

[41] = biological target: Kdn(a2-6)Gal(b1-4)GlcNAc
In short: as §1

[42] = biological target: Man(a1-2)Man(a1-2)Man(a1-3)Man
In short: as §1

[43] = biological target: Man(a1-2)Man(a1-2)Man(a1-6)[Man(a1-3)]Man
In short: as §1

[44] = biological target: Man(a1-2)Man(a1-3)Man
In short: as §1

[45] = biological target: Man(a1-2)Man(a1-3)[Man(a1-2)Man(a1-6)]Man
In short: as §1

B1: PfulAvr4 2 (Pseudocercospora fuligena) (protein)
chain: HHHHHHDYKDDDDKAKPIKPFACPPKDFTTTKCQGPVDCLYANPLSCLGYIQCVCDDDACSTATPYAKSCPTGLAWVEKLKRCDGIKKSACPKKMYEGS
glycan array binding signal (z-score) [1]: -0.301
glycan array binding signal (z-score) [2]: -0.271
glycan array binding signal (z-score) [3]: -0.103
glycan array binding signal (z-score) [4]: -0.121
glycan array binding signal (z-score) [5]: -0.381
glycan array binding signal (z-score) [6]: -0.335
glycan array binding signal (z-score) [7]: 0.828
glycan array binding signal (z-score) [8]: 0.006
glycan array binding signal (z-score) [9]: -0.249
glycan array binding signal (z-score) [10]: -0.295
glycan array binding signal (z-score) [11]: -0.152
glycan array binding signal (z-score) [12]: -0.115
glycan array binding signal (z-score) [13]: -0.305
glycan array binding signal (z-score) [14]: -0.097
glycan array binding signal (z-score) [15]: -0.231
glycan array binding signal (z-score) [16]: -0.318
glycan array binding signal (z-score) [17]: 0.032
glycan array binding signal (z-score) [18]: -0.144
glycan array binding signal (z-score) [19]: -0.245
glycan array binding signal (z-score) [20]: -0.133
glycan array binding signal (z-score) [21]: -0.335
glycan array binding signal (z-score) [22]: -0.312
glycan array binding signal (z-score) [23]: 4.99
glycan array binding signal (z-score) [24]: -0.521
glycan array binding signal (z-score) [25]: -0.336
glycan array binding signal (z-score) [26]: -0.162
glycan array binding signal (z-score) [27]: -0.339
glycan array binding signal (z-score) [28]: 0.234
glycan array binding signal (z-score) [29]: -0.072
glycan array binding signal (z-score) [30]: -0.125
glycan array binding signal (z-score) [31]: -0.154
glycan array binding signal (z-score) [32]: -0.374
glycan array binding signal (z-score) [33]: -0.263
glycan array binding signal (z-score) [34]: -0.131
glycan array binding signal (z-score) [35]: -0.273
glycan array binding signal (z-score) [36]: -0.146
glycan array binding signal (z-score) [37]: -0.297
glycan array binding signal (z-score) [38]: 0.201
glycan array binding signal (z-score) [39]: -0.272
glycan array binding signal (z-score) [40]: -0.095
glycan array binding signal (z-score) [41]: -0.206
glycan array binding signal (z-score) [42]: -0.282
glycan array binding signal (z-score) [43]: -0.136
glycan array binding signal (z-score) [44]: -0.282
glycan array binding signal (z-score) [45]: -0.375
